# Test results published in the supplement of paper PMC7125110.
# ± gives the standard error. Variants at the background level are over-represented here.
# B1: glmS ribozyme (parent)
# chain: AUAAAAGCGCCAGAACUACAGAAAUGUAGUUGACGAGGAGGAGGUUUAUCGAAUUUUCGGCGGAUGCCUCCAAA
# Variants of: B1
# Assay: self-cleavage kobs at 10000 uM GlcN6P; higher = faster cleavage; RNA array
# Conditions: with glucosamine-6-phosphate
# How it was run: (§1)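 A hybridised Cy3 probe tracked barcoded ribozyme variants, transcribed in situ by E. coli RNA polymerase on sequenced MiSeq chips, at 37 °C. The variants received 40 μM to 10 mM glucosamine-6-phosphate in HEPES/KCl/Mg(OAc)2 buffer. kobs came from decay fits and kcat and KM from weighted Michaelis–Menten fits.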
row,Variant,self-cleavage kobs at 10000 uM GlcN6P
1,G44U G62C C68U,< 1e-05 s⁻¹
2,U30G U45A C71G,0.000315 ± 5.9e-05 s⁻¹
3,G38A U49A C71U,< 1e-05 s⁻¹
4,G37C U45A U54C G63C,< 1e-05 s⁻¹
5,G37A C58G C67G,< 1e-05 s⁻¹
6,G51C C71U,< 1e-05 s⁻¹
7,A12U U31G U55C U65A,0.0008 ± 0.00013 s⁻¹
8,G37C A42G,5.87e-05 ± 1e-05 s⁻¹
9,U30A U54A C61G G63U,< 1e-05 s⁻¹
10,C10U A42G C58G C71A,< 1e-05 s⁻¹
11,C34A A39C G40C A48C,< 1e-05 s⁻¹
12,G9A A36U U45A A64C,< 1e-05 s⁻¹
13,C10G G13U A15G,< 1e-05 s⁻¹
14,G35U G40A G44C,< 1e-05 s⁻¹
15,C10U U31C A39C G43U,< 1e-05 s⁻¹
16,G13C G38A A42U C61U C67G,< 1e-05 s⁻¹
17,C16U G29C G35U A39G,< 1e-05 s⁻¹
18,G29U U55G G60C,< 1e-05 s⁻¹
19,A12G G44U C58G,< 1e-05 s⁻¹
20,G7A G32C G37A,< 1e-05 s⁻¹
21,G7A C10U C16U A33U C67U,< 1e-05 s⁻¹
22,A14C U57A C67A,3.08e-05 ± 1.4e-05 s⁻¹

row,Variant,self-cleavage kobs at 10000 uM GlcN6P
1,C19U C68U,0.00423 ± 0.0011 s⁻¹
2,G9A A15U U31C A42U G51A U56C,< 1e-05 s⁻¹
3,C10A G13U C67U,< 1e-05 s⁻¹
4,A6U A42U C50U A53G U54C U57A U69C,< 1e-05 s⁻¹
5,G29U A33C G60U G63U,< 1e-05 s⁻¹
6,C8U G51U U69A,0.000401 ± 0.00014 s⁻¹
7,G41A C50U U55G,< 1e-05 s⁻¹
8,G29C U30G G62U,< 1e-05 s⁻¹
9,C11A C34G G62U C68G,< 1e-05 s⁻¹
10,U31C A33U G62A,< 1e-05 s⁻¹
11,U31G G35U G37A U65C,< 1e-05 s⁻¹
12,U30G U49A C68A,< 1e-05 s⁻¹
13,A33C A64U G66A U69C,< 1e-05 s⁻¹
14,A53U C61A C71U,< 1e-05 s⁻¹
15,G9U U46G U54A G63A,< 1e-05 s⁻¹
16,A6G A42C U54A,< 1e-05 s⁻¹
17,G35C G37U C68G,7.56e-05 ± 2.4e-05 s⁻¹
18,U54G U57A C67G,7.25e-05 ± 1.8e-05 s⁻¹
19,G9U A52U C67U,< 1e-05 s⁻¹
20,C8A A52C G62A,< 1e-05 s⁻¹
21,C34A A36C G66U C71A,< 1e-05 s⁻¹
22,G41A G60A C70G,< 1e-05 s⁻¹

row,Variant,self-cleavage kobs at 10000 uM GlcN6P
1,A36C G41U C50G G60U C61G,< 1e-05 s⁻¹
2,G43A U46A U47A A52U C71A,< 1e-05 s⁻¹
3,A12U U49C U56G,< 1e-05 s⁻¹
4,G35A U47A,< 1e-05 s⁻¹
5,G7C U31C G63U,< 1e-05 s⁻¹
6,G59A G62U A64C,< 1e-05 s⁻¹
7,G44A G62C G66C,< 1e-05 s⁻¹
8,A6C G9U G29U G51A U65C C67G,< 1e-05 s⁻¹
9,A14C U30G A33G G37A C68G,< 1e-05 s⁻¹
10,A12C G38A A42G C70U,< 1e-05 s⁻¹
11,G32U C34G G40A,< 1e-05 s⁻¹
12,A48U C68A C70G,< 1e-05 s⁻¹
13,A15C A36C G40C,< 1e-05 s⁻¹
14,G32U C34G G35C,< 1e-05 s⁻¹
15,C10U A48G A53G,< 1e-05 s⁻¹
16,C10A G38C C67U,< 1e-05 s⁻¹
17,C8U U45G C50U U65C,< 1e-05 s⁻¹
18,G7A C10U G29C A36C A52U,< 1e-05 s⁻¹
19,A6G U46C U55C C70G,< 1e-05 s⁻¹
20,U31A A36C,< 1e-05 s⁻¹
21,G40C G66C C68U,< 1e-05 s⁻¹

# Variants of: B1
# Assay: self-cleavage kobs at 2500 uM GlcN6P; higher = faster cleavage; RNA array
# Conditions: with glucosamine-6-phosphate
# How it was run: as §1
row,Variant,self-cleavage kobs at 2500 uM GlcN6P
1,U46A A48U U49A,< 1e-05 s⁻¹
2,G51C C71U,< 1e-05 s⁻¹
3,U45A A52U C67A,8.33e-05 ± 2.5e-05 s⁻¹
4,A53G G63U C71A,< 1e-05 s⁻¹
5,A48C U57C,< 1e-05 s⁻¹
6,A48C U57G,< 1e-05 s⁻¹
7,G37C A42G,4.76e-05 ± 1.3e-05 s⁻¹
8,A42U U45C U55A,6.42e-05 ± 1.1e-05 s⁻¹
9,G35C U54G C61G C67U,< 1e-05 s⁻¹
10,U45C A48C A64U,< 1e-05 s⁻¹
11,C34G U45C,< 1e-05 s⁻¹
12,G37C G41C U54A,< 1e-05 s⁻¹
13,U49G C61U C67G,< 1e-05 s⁻¹
14,G35A U45A U57C C71G,< 1e-05 s⁻¹
15,A52G U55C G62A,< 1e-05 s⁻¹
16,A39G G44A G60U,< 1e-05 s⁻¹
17,C34G G38A G41C U57C C70A C71G,< 1e-05 s⁻¹
18,A39C C50U G59C,< 1e-05 s⁻¹
19,A52U U55A A64U,< 1e-05 s⁻¹
20,A36G G59C C61G,< 1e-05 s⁻¹
21,G35C G51C G60A C67U,< 1e-05 s⁻¹

row,Variant,self-cleavage kobs at 2500 uM GlcN6P
1,C34U G38U A42U G63U,< 1e-05 s⁻¹
2,G35C G38U U56C,< 1e-05 s⁻¹
3,C34A A36G C71U,< 1e-05 s⁻¹
4,G35U G37A G60U,< 1e-05 s⁻¹
5,A36C G59C U69C,< 1e-05 s⁻¹
6,U54G U57A C67G,7.42e-05 ± 2.5e-05 s⁻¹
7,U46G G59C C68U C70A,< 1e-05 s⁻¹
8,G44C U57C C71U,< 1e-05 s⁻¹
9,A36C U54A C61A C67A,6.51e-05 ± 2.2e-05 s⁻¹
10,G41A G60A C70G,< 1e-05 s⁻¹
11,A42U U47G A52G A64G,< 1e-05 s⁻¹
12,A42G C61A C70A,< 1e-05 s⁻¹
13,G43A U46A U47A A52U C71A,< 1e-05 s⁻¹
14,G38U A48U C61A,< 1e-05 s⁻¹
15,G35A U47A,< 1e-05 s⁻¹
16,U45G A48C C61G C68A,< 1e-05 s⁻¹
17,C34U G35U U57G G59C A64G C67U,< 1e-05 s⁻¹
18,C34A A36C G37U G51U,< 1e-05 s⁻¹
19,G38C U57A C71A,< 1e-05 s⁻¹
20,A39U U45G C50A U57A,< 1e-05 s⁻¹
